Measured values from patent publication US20050020580A1, “Materials and methods for the prevention or treatment of apoptosis and apoptosis-related diseases and conditions” (priority 2002, published 2005).

Test system: Jurkat T cells
Test: Apoptosis by selective PTPC agonists (ATR, STS, PK11195) in Jurkat T cells
Conditions: ANT agonist ATR, NFV pretreated

Cc1c(O)cccc1C(=O)N[C@@H](CSc1ccccc1)[C@H](O)CN1C[C@H]2CCCC[C@H]2C[C@H]1C(=O)NC(C)(C)C [NFV, nelfinavir]
ATR induced loss of ΔΨm, cytochrome c release, caspase 9, caspase 3, PARP cleavage and caspase 3 activation: inhibited
